Reference: PubChem BioAssay AID1745853 (National Center for Advancing Translational Sciences (NCATS), 2022)
This is one part of the list. The main result of the screen is listed elsewhere. These columns were measured beside it and carry no call.

What was measured:
Experiment in all cases: Primary Screen for Target Class Profiling of Small Molecule Inhibitors of Methyltransferases
[1] = target: Glycine N-methyltransferase (Homo sapiens) (UniProt Q14749); settings: purified enzyme, MTase-Glo SAH luminescence; measured here: GNMT inhibition; at 40 µM; stronger effect = lower value
Outline: (§1)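 Each enzyme was reacted with SAM and its substrate, with compounds tested once at 40 uM; SAH formed was read by MTase-Glo luminescence.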

[2] = target: Guanidinoacetate N-methyltransferase (Homo sapiens) (UniProt Q14353); settings: purified enzyme, MTase-Glo SAH luminescence; measured here: GAMT inhibition; at 40 µM; stronger effect = lower value
Outline: as §1

[3] = target: Histamine N-methyltransferase (Homo sapiens) (UniProt P50135); settings: purified enzyme, MTase-Glo SAH luminescence; measured here: HNMT inhibition; at 40 µM; stronger effect = lower value
Outline: as §1

[4] = target: Nicotinamide N-methyltransferase (Homo sapiens) (UniProt P40261); settings: purified enzyme, MTase-Glo SAH luminescence; measured here: NNMT inhibition; at 40 µM; stronger effect = lower value
Outline: as §1

[5] = target: Phenylethanolamine N-methyltransferase (Homo sapiens) (UniProt P11086); settings: purified enzyme, MTase-Glo SAH luminescence; measured here: PNMT inhibition; at 40 µM; stronger effect = lower value
Outline: as §1
On the % scale 0 is the no-effect control and ±100 the full control effect.

SMILES	activity change, negative = inhibition [1] [%]	activity change, negative = inhibition [2] [%]	activity change, negative = inhibition [3] [%]	activity change, negative = inhibition [4] [%]	activity change, negative = inhibition [5] [%]
CCc1nc2c(c(-c3ccc(Cl)cc3)n1)CCN(Cc1ccnn1C)CC2	-4.83	-6.52	-3.63	-12.4	-8.4
Cn1c(=O)c2ccc(C(=O)NC3CCCC3)cc2n2c(SCC(=O)Nc3ccccc3F)nnc12	-7.72	1.11	3.8	-3.57	3.5
COc1cccc(N2CCN(C(=O)CN(C)S(=O)(=O)c3ccc4[nH]c5c(c4c3)CCCC5)CC2)c1	0.567	4.27	2.25	-1.15	2.48
CCCCCN(CCC12CC3CC(CC(C3)C1)C2)C(=O)NCCCc1ccncc1	0.742	-10.6	7.16	-39.5	-6.45
O=C1c2cc3sccc3n2CC(C(=O)NC2CCCCCC2)(c2ccccc2)N1CCc1ccc(Cl)cc1 (configuration not stated)	2.82	4.21	1.5	3.06	-1.37
CCC1CCCCN1CCCNC(=O)CCn1ccc2cc(S(=O)(=O)N3CCCCC3)ccc21 (configuration not stated)	-0.538	4.28	-13.7	-0.155	2.14
Cn1c(=O)c2ccc(C(=O)NC3CCCC3)cc2n2c(=O)n(CC(=O)NCc3ccc(Cl)cc3)nc12	-0.12	0.565	-3.32	-1.4	-3.21
C[S+](=O)([O-])N1CCC2(CC1)C(=O)NN=C2c1ccccn1	-8.06	-6.42	-2.79	-14.4	-4.44
CCC(C)NC(=O)c1ccc2c(=O)n(C(C)C)c3nn(C)c(=O)n3c2c1 (configuration not stated)	5.77	0	7.38	0.54	2.98
Cc1ccc(NC(=O)CSc2nnc3n(CC(C)C)c(=O)c4ccccc4n23)cc1C	-4.01	-10.9	7.45	-7.7	-3.72
CCCn1c(C)cnc1CC1CCCN(S(=O)(=O)c2cc(OC)ccc2OC)C1 (configuration not stated)	-6.08	0	-1.28	-9.4	-1.65
Cc1cc(=O)n(CC(=O)NCc2ccccc2Cl)c(N(C)Cc2ccccc2)n1	-6.55	-5.96	-1.91	-8.86	-3.17
CCOC(=O)c1cc2n(n1)CC(C)(C(=O)NC1CCCC1)N(Cc1ccc(OCC)cc1)C2=O (configuration not stated)	-0.738	0	2.94	3.47	-1.61
CN1C[C@@H](NC(=O)CC(C)(C)CC(=O)O)C[C@H]1c1nc(-c2ccc3c(c2)OCO3)no1	-1.21	-5	-2.71	-6.59	-0.058
COc1ccc(CCNC(=O)Cn2ccc3cc(S(=O)(=O)N4CCCC4)ccc32)cc1OC	-3.74	0	-1.4	-4.26	-1.1
CC(C)CCN1C(=O)c2cc3occc3n2CC1(C)C(=O)NC1CCC(C)CC1 (configuration not stated)	-2.43	3.46	1.44	1.74	-4.46
CCCCc1nc(Cl)c(CO)n1Cc1ccc(-c2ccccc2-c2nnn[nH]2)cc1	-6.76		10.3		
CC(=O)Nc1c2n(c3ccccc13)CC(C)(C(=O)NC1CCCCC1)N(Cc1ccccc1)C2=O (configuration not stated)	-0.691	2	3.67	4.54	1.75
Cc1ccc(NS(=O)(=O)c2cc3c(cc2C)n(C)c(=O)n3C)cc1C	2.49	0	-1.8	-3.84	2.6
CCCN(CCC)C(=O)C(CCC(=O)OCCCN1CCN(CCOC(=O)Cc2c(C)n(C(=O)c3ccc(Cl)cc3)c3ccc(OC)cc23)CC1)NC(=O)c1ccccc1 (configuration not stated)	0.478	1.06	11.8	-13.5	6.49
O=C1N(Cc2ccc(F)c(F)c2)CCCC12CCN(c1nc3ccccc3o1)C2 (configuration not stated)	-6.91	-10.9	-15.9	-12.2	-8.58
COc1ccc(-c2nc3ccc(C4=NNC(=O)CC4C)cc3[nH]2)cc1 (configuration not stated)	-45.8	-9.68	-12.4	-32.4	-14.8
COc1ccccc1-c1ccc(-c2cn(C(=O)N3CCCCC3Cc3ccccc3)nn2)cc1 (configuration not stated)	3.91	-20.3	11.9	-21.8	-0.52
COc1ccc(CNC(=O)[C@@H]2CCC[C@@H](NC(=O)C3CC3)CN(C)C(=O)C2)cc1	-5.83	-4.75	-1.93	-9.49	-4.44
Cc1nc2n(c(=O)c1CCN1CCC(c3noc4cc(F)ccc34)CC1)CCCC2O (configuration not stated)	5.36	9.44	9.19	-15.5	-4.28
C=CCn1c(=O)c2cnc(Nc3ccc(N4CCN(C)CC4)cc3)nc2n1-c1cccc(C(C)(C)O)n1	-22.3	-11.3	-63	-24.1	-16.3
Cc1ccc(CNS(=O)(=O)c2ccc3[nH]c(=O)[nH]c3c2)cc1	1.15	3.76	-3.51	-7.78	-8.31
Cn1cnc2c(=O)oc3ccc(S(=O)(=O)NCCc4ccc(Cl)cc4)cc3c21	-2.73	3.89	-5.5	-4.79	-4.63
COc1cccc([C@@H]2CN(C(=O)c3cc(C)oc3C)C[C@H]2C(=O)O)c1OC	-5.28	-4.4	-2.28	-6.74	-5.46
